# Assay results: PubChem BioAssay AID2675 (National Center for Advancing Translational Sciences (NCATS), 2010)
# The campaign covered roughly 280,000 compounds. About 100 (0.036%) were called active. Inconclusive results, whose numbers are uncertain, are shown with a selection of clear calls. The call rests on the fitted dose curve; in most records, active means well fitted inhibition curve with a large enough effect in the signal ratio, with a control signal flat (not every such curve was filed as active); inconclusive means small, poorly fitted or top-dose-only effect, or effect the other way, or a change in a side signal; inactive means no such curve, though single readings can be large or run the other way; the % refers to the signal ratio. Potencies beside an inconclusive call are fits to weak or partial responses and may not hold up. A note “side channel” means that the fit belongs to a control or component signal, not to the main read-out.
# Target: Muscleblind-like protein 1 (Homo sapiens) (UniProt Q9NR56)
# Experiment: qHTS Assay for Inhibitors of MBNL1-poly(CUG) RNA binding
# Details: TR-FRET MBNL1-His/biotin-(CUG)12 binding, 665/545 ratio; activity change, negative = inhibition: at 57.5 µM (top of the series)
# Method in brief: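 His-tagged MBNL1 binding to biotinylated (CUG)12 RNA was measured by TR-FRET using terbium anti-His antibody (0.055 ng/ul final) and streptavidin-XL665 (5 nM final). Compounds were titrated 92 nM to 58 uM; 60 min at room temperature.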
# On the % scale 0 is the no-effect control and ±100 the full control effect; potency means the concentration at half of the fitted maximal effect; tags describe the fitted curve by direction and shape or compound fluorescence and quenching.
# UniProt Q9NR56, sequence (Q9NR56 whole entry, looked up): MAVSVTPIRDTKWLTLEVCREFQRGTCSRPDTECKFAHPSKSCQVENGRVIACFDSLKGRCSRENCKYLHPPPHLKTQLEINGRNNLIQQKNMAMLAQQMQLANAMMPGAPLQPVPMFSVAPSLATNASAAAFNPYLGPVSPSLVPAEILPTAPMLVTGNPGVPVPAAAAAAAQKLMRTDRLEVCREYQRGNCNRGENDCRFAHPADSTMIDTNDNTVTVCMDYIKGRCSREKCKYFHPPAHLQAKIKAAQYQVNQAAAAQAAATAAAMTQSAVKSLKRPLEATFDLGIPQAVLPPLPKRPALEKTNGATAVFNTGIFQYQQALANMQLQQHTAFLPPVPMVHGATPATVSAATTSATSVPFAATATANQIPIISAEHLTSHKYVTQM
SMILES,Potency,"activity change, negative = inhibition"
O=C(Cc1cccc2ccccc12)OCn1nnc2ccccc2c1=O,"inconclusive: 28.2 µM [quencher, side channel, single point]",–
COc1ccc(-c2c(=O)n(OCc3ccccn3)c3ccccc3[n+]2[O-])cc1OC,"inconclusive: 5.62 µM [quencher, side channel, partial curve]",–
O=c1[nH]c2cc3c(cc2cc1CN(CC1CCCO1)S(=O)(=O)c1ccc(Cl)cc1)OCCO3 (stereo not drawn),"inconclusive: 8.91 µM [fluorescent, side channel, single point]",–
NS(=O)(=O)c1ccc(CCNC(=O)CN2CCN(c3cccc(Cl)c3)CC2)cc1,"inconclusive: 14.1 µM [quencher, side channel, single point]",–
CC(=O)Nc1ccc(S(=O)(=O)N2CCN(c3cc4c(cc3[N+](=O)[O-])n(C)c(=O)n4C)CC2)cc1,"inconclusive: 15.8 µM [quencher, side channel, partial curve]",–
CCCCC1(C)Cc2ccccc2C(=S)N1 (stereo not drawn),inactive,–
Cc1ccn2cc(-c3nonc3C)cc2c1,"inconclusive: 28.2 µM [quencher, side channel, partial curve]",–
CN(CCO)c1cc(N2CCC3(CC2)OCCO3)c2nonc2c1[N+](=O)[O-],"inconclusive: 8.91 µM [quencher, side channel, partial curve]",–
N=c1c(C(=O)NCC2CCCO2)cc2c(=O)n3ccccc3nc2n1C1CCCC1 (stereo not drawn),"inconclusive: 7.08 µM [quencher, side channel, partial curve]",–
CCn1c(/C=C/c2ccc([N+](=O)[O-])o2)nc2ccccc2c1=O,"inconclusive: 3.16 µM [quencher, side channel, full curve]",–
CN(C)/C=C/C(=O)c1ccc2noc(-c3ccc(F)cc3)c2c1,"inconclusive: 28.2 µM [quencher, side channel, single point]",–
O=C(C1CCCC1)N1CCN=C1SCc1cccc([N+](=O)[O-])c1,"inconclusive: 35.5 µM [quencher, side channel, single point]",–
Cc1ccc(N(C(=O)c2ccc(S(=O)(=O)N3CCOCC3)cc2)C2C=CS(=O)(=O)C2)cc1C (stereo not drawn),"inconclusive: 0.708 µM [fluorescent, side channel, single point]",–
CC(C)OC(=O)/C(C#N)=C/c1c[nH]c2ccccc12,"inconclusive: 22.4 µM [quencher, side channel, partial curve]",–
O=C(N/N=C/c1cn(Cc2ccccc2)c2ccccc12)c1ccncc1,"inconclusive: 22.4 µM [quencher, side channel, single point]",–
CCn1c(C)nnc1SCC(=O)Nc1ccc(Cl)cc1,inactive,–
O=C(NC1CC1)c1cc2cc3ccccc3nc2s1,"inconclusive: 12.6 µM [quencher, side channel, partial curve]",–
CC(C(=O)NCc1ccc2c(c1)OCO2)c1ccc([N+](=O)[O-])cc1 (stereo not drawn),"inconclusive: 31.6 µM [quencher, side channel, single point]",–
Oc1ccccc1N1CCN(CC(O)COCc2ccccc2Cl)CC1 (stereo not drawn),inactive,–

SMILES,Potency,"activity change, negative = inhibition"
COc1ccc(NC2=C(NCCO)C(=O)c3ccccc3C2=O)cc1,"inconclusive: 8.91 µM [quencher, side channel, partial curve]",–
CCCN1C(=O)c2ccccc2NC1c1ccc(O)c(OCC)c1 (stereo not drawn),inactive,–
CCOC(=O)c1nc(Nc2ccc(OC)cc2)c2ccccc2n1,"inconclusive: 25.1 µM [quencher, side channel, partial curve]",–
Cc1ccc(NS(=O)(=O)c2c(C)ccc3nsnc23)c([N+](=O)[O-])c1,"inconclusive: 25.1 µM [quencher, side channel, partial curve]",–
CSc1nnc(N2C(=O)C(O)=C(C(=O)c3ccco3)C2c2cccc(Cl)c2)s1 (stereo not drawn),"inconclusive: 31.6 µM [quencher, partial curve]",–
O=C(c1ccccc1)N(Cc1ccc(F)cc1)Cc1nc2ccccc2c(=O)[nH]1,inactive,–
CCN(CC)S(=O)(=O)c1ccc(N2CCOCC2)c(NC(=O)c2ccc(OC)c([N+](=O)[O-])c2)c1,"inconclusive: 25.1 µM [quencher, side channel, partial curve, poor fit]",–
O=C(Nc1ccccc1C(=O)O)c1ccc2ccccc2n1,"inconclusive: 15.8 µM [quencher, side channel, partial curve]",–
COc1ccc(CN2CCN(Cc3ccc(C)cc3)CC2)c(OC)c1,inactive,–
Cn1c(=O)c(=O)n(C)c2cc(N3CCOCC3)c(NS(=O)(=O)c3ccc([N+](=O)[O-])cc3)cc21,"inconclusive: 15.8 µM [quencher, side channel, partial curve]",–
Cc1cc(NC(=O)c2ccc(C)c([N+](=O)[O-])c2)no1,inactive,–
COc1ccc(NS(=O)(=O)c2ccc(O)c(C(=O)OCC(=O)Nc3ccc4c(c3)OCCO4)c2)cc1,–,inconclusive: -13.1% [phenotype inactive]
CC(C)c1ccc(NC(=O)C2CCN(c3ncnc4c3nc3n4CCCCC3)CC2)cc1,inactive,–
O=C1/C(=C/c2ccccn2)SC(=S)N1c1ccc(O)cc1,"inconclusive: 35.5 µM [quencher, side channel, single point]",–
O=C(N/C(=C/c1ccc([N+](=O)[O-])cc1)C(=O)N1CCOCC1)c1ccco1,"inconclusive: 8.91 µM [quencher, partial curve]",–
C=CCn1c(=N)n(CC(=O)OCC)c2ccccc21,inactive,–
O=C(O)c1ccc(Nc2ccc(F)c(F)c2)c([N+](=O)[O-])c1,"inconclusive: 14.1 µM [quencher, side channel, partial curve]",–
CCOC(=O)C1CCN(C(=O)C2CCN(S(=O)(=O)c3cccc4nsnc34)CC2)CC1,"inconclusive: 2.51 µM [quencher, side channel, partial curve, poor fit]",–
Cc1nn(-c2ccccc2)c(N)c1N=O,"inconclusive: 14.1 µM [quencher, side channel, partial curve]",–
